Measured values as given in PubChem BioAssay (Tox21).
Where “and” joins values, the source holds several entries; their conditions need not be identical. Equal entries are not always repeated. Inconclusive results, whose numbers are uncertain, are shown with a selection of clear calls. For some assays here: A potency beside an inconclusive call is a rough fit, not a confirmed value. Where a structure was tested more than once in an assay, its records may differ in their call. Calls of active or inactive are those of the source. Unless noted, the call rests on the fitted dose curve; in most records, active means well fitted curve in the direction sought with a large enough effect in the repeat runs; inconclusive means weak or mixed curves; inactive means no such curve, though single readings can be large; an effect the other way counts as inactive or inconclusive.

Assays:
[1] = qHTS assay to identify small molecule agonists of the estrogen receptor beta (ER-beta) signaling pathway - cell viability counter screen (AID 1259380); further: nearly all actives have a fitted effect of over 30% in size
Procedure, shortened: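 Measured: luminescence from CellTiter-Glo after 30 min at room temperature, added to wells already read for the LiveBLAzer FRET reporter (2 hr substrate); ER-beta-UAS-bla HEK293T cells had 16 hr compound treatment at 37C, 5% CO2.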

[2] = qHTS assay to identify small molecule antagonists of the estrogen receptor beta (ER-beta) signaling pathway - cell viability counter screen (AID 1259382); further: nearly all actives have a fitted effect of over 55% in size
Procedure, shortened: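 Readout: luminescence, CellTiter-Glo, same wells as bla assay. System: ER-beta-UAS-bla GripTite HEK293T, 2% charcoal-stripped FBS. Exposure: compounds plus 1nM 17-beta-estradiol, 16 hr, 37C.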

[3] = target: Thyrotropin receptor (Homo sapiens) (UniProt P16473); experiment: qHTS assay to identify small molecule antagonists of the thyroid stimulating hormone receptor (TSHR) signaling pathway (AID 1259385; calls by dose curve; further: nearly all actives have a fitted effect of over 20% in size; on activity change, negative = inhibition: on the % scale 0 is the no-effect control and ±100 the full control effect); settings: TSHR-HEK293 cAMP HTRF, TSH-stimulated antagonist mode; activity change, negative = inhibition: at 92.4 µM (top of the series) unless noted
Procedure, shortened: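 TSHR-HEK293 cells (800/well) plated 18 h, then compounds with Ro20-1724 and TSH at 1.5 ng/mL final, 30 min at room temperature. cAMP quantified by HTRF (cAMP-d2/anti-cAMP-cryptate, 1 h); 15 concentrations in triplicate.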

[4] = target: Progesterone receptor (Homo sapiens) (UniProt P06401); experiment: qHTS assay to identify small molecule antagonists of the progesterone receptor (PR) signaling pathway (AID 1346795; active means well fitted inhibition curve with a large enough effect in the signal ratio in the repeat runs, not every such curve was filed as active; inconclusive means weak or mixed curves; the % refers to the signal ratio); settings: PR-UAS-bla HEK293T, beta-lactamase FRET ratio, 16 h; activity change, negative = inhibition: at 92.4 µM (top of the series) unless noted
Procedure, shortened: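 HEK293T PR-UAS-bla reporter cells in charcoal-stripped serum (2%) received compound after a 6 hr settling period, followed by R5020 agonist at 1 nM final; 16 hr incubation preceded the FRET substrate step and fluorescence measurement.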

[5] = qHTS assay to identify small molecule antagonists of the TGF-beta/Smad signaling pathway - cell viability counter screen (AID 1346824); further: nearly all actives have a fitted effect of over 50% in size
Procedure, shortened: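 SBE-bla HEK 293T cells, incubated overnight, then compound plus 0.25 ng/mL TGF-beta1 (stock added) for 5 hr at 37 C. Viability was read in the same wells by CellTiter-Glo luminescence after 30 min at room temperature.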

[6] = qHTS assay to identify small molecule agonists of the TGF-beta/Smad signaling pathway - cell viability counter screen (AID 1346829); further: nearly all actives have a fitted effect of over 45% in size
Procedure, shortened: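 Compound-treated SBE-bla HEK 293T cells (5 hr, 37 C) were assessed for viability with CellTiter-Glo in parallel with the reporter read.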

[7] = qHTS assay to identify small molecule agonists of the TGF-beta/Smad signaling pathway (AID 1346859; active means well fitted activation curve with a large enough effect in the signal ratio in the repeat runs, not every such curve was filed as active; inconclusive means weak or mixed curves; the % refers to the signal ratio); settings: SBE-bla HEK293T, TGF-beta/Smad beta-lactamase reporter, 5 h; activation: at 76.8 µM (top of the series)
Procedure, shortened: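 Smad-responsive beta-lactamase reporter cells (HEK 293T) received compounds from DMSO stocks after overnight attachment, were incubated 5 hr, then treated 2 hr with FRET substrate before dual-emission fluorescence measurement (405 nm excitation).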

[8] = qHTS assay to identify small molecule antagonists of the TGF-beta/Smad signaling pathway (AID 1346924; active means well fitted inhibition curve with a large enough effect in the signal ratio in the repeat runs, not every such curve was filed as active; inconclusive means weak or mixed curves; the % refers to the signal ratio); settings: SBE-bla HEK293T, TGF-beta/Smad reporter, beta-lactamase ratio; activity, negative = inhibition: at 76.8 µM (top of the series) unless noted
Procedure, shortened: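 Read-out was FRET-substrate fluorescence (405 nm excitation; 460 and 530 nm emission) after 2 h at room temperature. Before that, cells carrying a Smad-binding-element beta-lactamase reporter in HEK 293T had been stimulated 5 h at 37 C with TGF-beta1 (0.25 ng/mL addition solution) in the presence of test compound.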

[9] = Caspase-3/7 induction in HepG2 cells by small molecules, qHTS assay (AID 1346978); further: nearly all actives have a fitted effect of over 15% in size
Procedure, shortened: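 Wild-type HepG2 cells, 2,000/well, settled 5 hr at 37 C and 5% CO2, then compound-treated for 17 hr; caspase-3/7 activity read by luminescent Caspase-Glo 3/7 after 30 min at room temperature.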

[10] = Caspase-3/7 induction in CHO-K1 cells by small molecules, qHTS cell viability counter screen (AID 1346979); further: nearly all actives have a fitted effect of over 35% in size
Procedure, shortened: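 In the same wells as the caspase read, viability of compound-treated wild-type CHO-K1 cells was assessed using CellTiter-Fluor, added after 16hr at 37C and measured by fluorescence following 1hr further incubation.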

[11] = qHTS assay to identify small molecule agonists or antagonists of the thyroid stimulating hormone receptor (TSHR) signaling pathway - wild type cell line counter screen (AID 1259384; calls by dose curve; on cAMP activity change: on the % scale 0 is the no-effect control and ±100 the full control effect); settings: HEK293 wild type, cAMP HTRF counter-screen; cAMP activity change: at 92.4 µM (top of the series), stronger effect = higher value unless noted
Procedure, shortened: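 Wild-type Hek293 cells, 800/well, 18 h at 37C, then compound with Ro20-1724 for 30 min RT. cAMP by HTRF (cAMP-d2/anti-cAMP cryptate), 1 h RT, fluorescence read. 15 concentrations, triplicates.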

[12] = qHTS assay to identify small molecule agonists of the estrogen receptor alpha (ER-alpha) signaling pathway in the presence of an antagonist - cell viability counter screen (AID 1259386);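 further: cells exposed to compounds for 22 h at 37 °C before the viability read; nearly all actives have a fitted effect of over 30% in size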
Procedure, shortened: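 The test measures whether compounds kill ER-alpha reporter cells (VM7Luc4E2) under antagonist co-treatment (ICI-182,780, 10.0nM). Fluorescence from CellTiter-Fluor is read after a 22hr exposure.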

[13] = qHTS assay to identify small molecule antagonists of the progesterone receptor (PR) signaling pathway - cell viability counter screen (AID 1346798); further: nearly all actives have a fitted effect of over 50% in size
Procedure, shortened: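 Same-well multiplex: after 16 hr at 37C with compound and R5020 stimulation, HEK293T cells carrying a UAS-bla reporter received LiveBLAzer substrate (2 hr RT), then CellTiter-Glo (30 min RT) for luminescent viability.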

[14] = qHTS assay to identify small molecule agonists of the progesterone receptor (PR) signaling pathway - cell viability counter screen (AID 1346799; calls by dose curve; further: nearly all actives have a fitted effect of over 45% in size)
Procedure, shortened: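 Counter screen for cytotoxicity: compound-treated PR-UAS-bla HEK293T cells (16 hr, 37C, 5% CO2) were assayed with CellTiter-Glo, luminescence measured after 30 min at room temperature.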

[15] = Caspase-3/7 induction in CHO-K1 cells by small molecules, qHTS assay (AID 1346980); further: nearly all actives have a fitted effect of over 15% in size
Procedure, shortened: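 Wild-type CHO-K1 cells exposed to compounds for 17hr at 37 C, 5% CO2. Caspase-3/7 activity then measured by Caspase-Glo 3/7 luminescence after 30min at room temperature.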

[16] = target: Progesterone receptor (Homo sapiens) (UniProt P06401); experiment: qHTS assay to identify small molecule agonists of the progesterone receptor (PR) signaling pathway (AID 1346784; calls by dose curve; further: nearly all actives have a fitted effect of over 30% in size); settings: PR-UAS-bla HEK293T, beta-lactamase FRET ratio, 16 h; activation: at 92.4 µM (top of the series) unless noted
Procedure, shortened: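 Agonist mode, quantitative HTS format in a HEK 293T line expressing a UAS-controlled beta-lactamase reporter; 16 hr compound exposure at 37C in 2% charcoal-stripped FBS, then LiveBLAzer B/G FRET fluorescence.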

[17] = Human pregnane X receptor (PXR) small molecule agonists, qHTS cell viability counter screen (AID 1346977); further: nearly all actives have a fitted effect of over 50% in size
Procedure, shortened: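 Measures live-cell protease fluorescence (CellTiter-Fluor) in PXR-Luc HepG2 cells treated 24hr with compounds at 37C. Cells had 5hr to attach before pin transfer of DMSO solutions.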

[18] = target: Thyrotropin-releasing hormone receptor (Homo sapiens) (UniProt P34981); experiment: qHTS assay to identify small molecule antagonists of the thyrotropin-releasing hormone receptor (TRHR) signaling pathway (AID 1346877; active means well fitted inhibition curve with a large enough effect in the repeat runs, not every such curve was filed as active; inconclusive means weak or mixed curves)
Procedure, shortened: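 Overnight-plated (18 h, 37 °C) HEK293 cells expressing TRHR were dye-loaded 2 h, treated with compound, then stimulated with TRH at 1 nM final. Fluorescence intensity was captured every second for 3 min.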

[19] = target: Thyrotropin-releasing hormone receptor (Homo sapiens) (UniProt P34981); experiment: qHTS assay to identify small molecule agonists of the thyrotropin-releasing hormone receptor (TRHR) signaling pathway (AID 1346891; calls by dose curve)
Procedure, shortened: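 Agonist-mode calcium mobilisation screen: TRHR-transfected HEK293 cells cultured overnight (18 h), dye-loaded for 2 h at 37 °C, exposed to compounds, and monitored by fluorescence for 3 min.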
Potency means the concentration at half of the fitted maximal effect; tags describe the fitted curve by direction and shape or compound fluorescence and quenching.

Chain of UniProt P06401 (P06401 whole entry, looked up): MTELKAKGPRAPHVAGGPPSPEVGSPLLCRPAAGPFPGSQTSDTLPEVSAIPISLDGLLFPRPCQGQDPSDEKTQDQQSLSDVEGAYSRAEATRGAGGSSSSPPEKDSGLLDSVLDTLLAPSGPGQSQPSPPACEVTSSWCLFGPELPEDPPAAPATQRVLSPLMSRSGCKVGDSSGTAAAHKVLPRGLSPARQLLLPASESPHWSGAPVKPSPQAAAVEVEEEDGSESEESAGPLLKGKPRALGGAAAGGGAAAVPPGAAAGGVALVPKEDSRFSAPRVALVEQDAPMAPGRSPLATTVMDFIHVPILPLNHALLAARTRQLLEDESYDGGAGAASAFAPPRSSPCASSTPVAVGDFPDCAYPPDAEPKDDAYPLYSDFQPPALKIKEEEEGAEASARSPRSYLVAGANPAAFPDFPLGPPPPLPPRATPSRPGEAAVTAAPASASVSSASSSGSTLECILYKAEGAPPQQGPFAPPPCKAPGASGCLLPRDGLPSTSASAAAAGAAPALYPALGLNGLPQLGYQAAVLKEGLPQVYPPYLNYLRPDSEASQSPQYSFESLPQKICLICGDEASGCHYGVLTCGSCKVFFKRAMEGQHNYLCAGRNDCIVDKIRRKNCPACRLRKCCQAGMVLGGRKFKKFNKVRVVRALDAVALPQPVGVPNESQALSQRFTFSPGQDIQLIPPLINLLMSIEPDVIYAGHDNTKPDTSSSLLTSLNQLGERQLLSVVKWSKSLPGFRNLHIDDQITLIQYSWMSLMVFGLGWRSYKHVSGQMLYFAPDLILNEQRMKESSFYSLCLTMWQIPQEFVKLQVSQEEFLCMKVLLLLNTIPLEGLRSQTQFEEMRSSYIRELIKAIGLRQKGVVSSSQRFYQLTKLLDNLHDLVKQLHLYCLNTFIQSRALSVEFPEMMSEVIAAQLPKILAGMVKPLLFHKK
Chain of UniProt P16473 (P16473 whole entry, looked up): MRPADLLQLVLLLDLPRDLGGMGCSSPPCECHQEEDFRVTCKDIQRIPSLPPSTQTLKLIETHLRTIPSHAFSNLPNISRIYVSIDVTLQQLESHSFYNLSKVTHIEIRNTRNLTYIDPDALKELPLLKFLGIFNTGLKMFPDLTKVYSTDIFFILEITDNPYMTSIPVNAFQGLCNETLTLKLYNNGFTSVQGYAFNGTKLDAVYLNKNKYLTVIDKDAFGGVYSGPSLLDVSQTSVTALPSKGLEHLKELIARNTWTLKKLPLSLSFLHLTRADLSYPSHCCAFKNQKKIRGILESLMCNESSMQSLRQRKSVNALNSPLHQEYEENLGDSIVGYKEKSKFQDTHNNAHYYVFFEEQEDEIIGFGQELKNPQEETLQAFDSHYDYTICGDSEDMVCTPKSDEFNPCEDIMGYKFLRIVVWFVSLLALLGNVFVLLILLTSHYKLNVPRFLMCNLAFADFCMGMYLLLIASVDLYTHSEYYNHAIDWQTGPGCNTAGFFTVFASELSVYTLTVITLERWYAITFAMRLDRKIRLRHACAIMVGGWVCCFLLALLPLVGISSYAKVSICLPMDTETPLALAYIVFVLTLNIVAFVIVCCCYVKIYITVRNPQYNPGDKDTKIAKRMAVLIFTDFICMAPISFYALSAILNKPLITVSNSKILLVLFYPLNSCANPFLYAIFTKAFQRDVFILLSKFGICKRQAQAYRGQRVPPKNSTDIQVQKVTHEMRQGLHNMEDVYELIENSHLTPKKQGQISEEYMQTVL
Chain of UniProt P34981 (P34981 whole entry, looked up): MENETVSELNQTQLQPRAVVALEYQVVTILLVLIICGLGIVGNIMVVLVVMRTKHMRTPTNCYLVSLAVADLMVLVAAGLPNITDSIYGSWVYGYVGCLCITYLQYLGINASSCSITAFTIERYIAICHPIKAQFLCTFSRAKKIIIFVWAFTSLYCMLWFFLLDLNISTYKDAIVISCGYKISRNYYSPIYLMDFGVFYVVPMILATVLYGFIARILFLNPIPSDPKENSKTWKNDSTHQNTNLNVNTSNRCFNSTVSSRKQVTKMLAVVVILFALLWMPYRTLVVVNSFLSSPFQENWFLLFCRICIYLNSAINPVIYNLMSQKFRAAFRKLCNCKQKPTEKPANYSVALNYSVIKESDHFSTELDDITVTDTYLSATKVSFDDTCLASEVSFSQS

CCC(=O)O[C@H]1CC[C@H]2[C@@H]3CCC4=CC(=O)CC[C@]4(C)[C@H]3CC[C@]12C
Potency [1]: active: 68.6 µM and inconclusive: 33.5 µM [cytotoxic, single point]
Potency [2]: active: 61.1 µM
Potency [3]: inconclusive: 68.6 µM
Potency [4]: active: 0.486 µM
Potency [5]: inconclusive: 38.9 µM [cytotoxic, partial curve, poor fit]
Potency [6]: inconclusive: 49 µM [cytotoxic, partial curve]
Potency [7]: inconclusive: 54.9 µM
Potency [8]: inconclusive: 46.2 µM [inhibitor]
activity, negative = inhibition [8]: inconclusive: -15.6% [at 35.3 µM]
Potency [9]: inconclusive: 68.6 µM [activator]
Potency [10]: inconclusive: 68.6 µM [cytotoxic, single point]

N#Cc1c(Cl)c(Cl)c(Cl)c(C#N)c1Cl
Potency [1]: active: 8.47 µM and active: 19.3 µM
Potency [2]: active: 9.5 µM and active: 15.4 µM
Potency [11]: inactive
activity change, negative = inhibition [3]: inconclusive: -11.6% and inconclusive: -0.211%
Potency [12]: active: 23.9 µM and active: 54.5 µM
Potency [4]: active: 3.37 µM and active: 3.86 µM
Potency [13]: active: 19 µM and active: 13.7 µM
Potency [14]: active: 21.3 µM and active: 19.3 µM
Potency [5]: active: 48 µM and active: 49 µM
Potency [6]: active: 48 µM and active: 54.9 µM
Potency [7]: inconclusive: 54.9 µM [falling, single point]
Potency [8]: inconclusive: 7.61 µM [rising, partial curve] and inconclusive: 4.9 µM [rising, partial curve]
Potency [15]: inconclusive: 268 nM [activator, partial curve] and inconclusive: 611 nM [activator, partial curve]

CCC[CH2][Sn]([CH2]CCC)([CH2]CCC)[O]C(=O)c1ccccc1
Potency [1]: active: 1.54 µM
Potency [2]: active: 1.93 µM
Potency [11]: inconclusive: 15.4 µM
Potency [3]: active: 17.2 µM
Potency [16]: inconclusive: 1.37 µM [cytotoxic, full curve]
Potency [4]: inconclusive: 4.33 µM [falling, full curve]
Potency [13]: active: 2.17 µM
Potency [14]: active: 2.43 µM
Potency [5]: active: 3.47 µM
Potency [6]: active: 2.45 µM
Potency [7]: inconclusive: 1.23 µM [rising, full curve]
Potency [17]: active: 1.22 µM
Potency [15]: active: 1.93 µM

FC(F)(F)c1ccc(Cl)cc1
Potency [1]: inactive

COc1cc(OC)c(OC)cc1C=O
Potency [1]: inconclusive: 59.3 µM [rising, partial curve, poor fit]
Potency [2]: inconclusive: 74.6 µM [cytotoxic, single point]
activity change, negative = inhibition [3]: inconclusive: 6.36%
Potency [16]: inconclusive: 74.6 µM [rising, partial curve, poor fit]
Potency [4]: inconclusive: 74.6 µM [single point]
Potency [13]: inconclusive: 74.6 µM [rising, partial curve, poor fit]
Potency [14]: inconclusive: 26.5 µM [cytotoxic, single point]
Potency [8]: inconclusive: 59.8 µM [single point]
Potency [17]: inconclusive: 66.5 µM [cytotoxic]
Potency [10]: inconclusive: 66.5 µM [cytotoxic]

COC12CC[C@@]3(C[C@@H]1C(C)(O)C(C)(C)C)[C@H]1Cc4ccc(O)c5c4[C@@]3(CCN1CC1CC1)[C@H]2O5 (some centres not stated)
Potency [1]: active: 27.1 µM
Potency [2]: active: 54.1 µM
Potency [12]: active: 60.7 µM
Potency [16]: inconclusive: 54.1 µM [cytotoxic, partial curve]
Potency [4]: inconclusive: 68.1 µM [falling, single point]
Potency [13]: active: 43 µM
Potency [14]: active: 38.3 µM
Potency [5]: active: 48.6 µM
Potency [6]: active: 38.6 µM
Potency [18]: inconclusive: 37.7 µM [inhibitor, partial curve, poor fit]
Potency [19]: inconclusive: 43.4 µM [activator, partial curve, poor fit]
Potency [9]: active: 60.7 µM
Potency [10]: active: 43 µM
Potency [15]: active: 48.2 µM
